{"source": "PubChem BioAssay AID485273", "about": "(Sanford-Burnham Center for Chemical Genomics, 2010)", "note": "Screen size: about 330,000 compounds; about 1,500 (0.45%) were called active. This list was built around the results that the source calls inconclusive (neither active nor inactive); the mix of calls is not that of the screen. No stated cut-off is given here; in the data, active means inhibition above about 45% (passing the limit was not always enough); inconclusive means no clear call, values can overlap the other calls."}
{"target": "Ubiquitin-conjugating enzyme E2 N (Homo sapiens) (UniProt P61088)", "sequence (P61088 whole entry, looked up)": "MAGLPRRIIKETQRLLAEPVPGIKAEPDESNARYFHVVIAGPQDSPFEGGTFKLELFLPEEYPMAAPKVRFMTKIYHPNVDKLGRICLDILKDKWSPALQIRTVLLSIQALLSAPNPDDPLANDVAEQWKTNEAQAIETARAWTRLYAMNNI", "assay": "UBC13 polyubiquitin chain formation inhibitors, primary screen, biochemical, TR-FRET, uHTS (AID 485273)", "settings": "at 20 µM, active compounds read high"}
{"smiles": "CCOCCCn1c(SCC(=O)Nc2ccc(NC(C)=O)cc2)nc2ccccc2c1=O", "inhibition": "inconclusive: 87.9%"}
{"smiles": "Cc1nc(N2CCN(c3ccccn3)CC2)c2c(C)c(C(=O)Nc3ccc(F)c(Cl)c3)sc2n1", "inhibition": "inconclusive: 76.5%"}
{"smiles": "Brc1cc(Br)c2ncnc(N3CCCCC3)c2c1", "inhibition": "inconclusive: 78.2%"}
{"smiles": "O=C(NCCN1CCCC1)c1ccc(Cn2c(=S)[nH]c3ccc(Br)cc3c2=O)cc1", "inhibition": "inconclusive: 56.6%"}
{"smiles": "Cc1ccccc1C(=O)OC1OC(=O)C(Cl)=C1Nc1ccccc1", "note": "(centres undefined)", "inhibition": "active: 78%"}
{"smiles": "Fc1ccc(-n2ncc3c(SCc4cccnc4)ncnc32)cc1", "inhibition": "inconclusive: 58.4%"}
{"smiles": "Cc1ccc(-n2nc3cc(C)c(NC(=S)NC(=O)/C=C/c4ccco4)cc3n2)cc1", "inhibition": "inconclusive: 84.6%"}
{"smiles": "O=C(CCN1C(=O)S/C(=C\\c2ccccc2)C1=O)Nc1ccc(S(=O)(=O)Nc2nccs2)cc1", "inhibition": "inactive: -14.2%"}
{"smiles": "O=C(O)COc1ccc(=O)n(-c2ccccc2)n1", "inhibition": "inactive: -11.1%"}
{"smiles": "Cc1cccc(NC(=O)c2cc(-c3ccc(C)s3)nc3ccccc23)n1", "inhibition": "active: 47.1%"}
{"smiles": "COc1ccc(-c2nnc3ccc(SCC(=O)N4CCCCCC4)nn23)cc1OC", "inhibition": "inconclusive: 61.8%"}
{"smiles": "COc1cc2cc(Br)cc(Br)c2nc1C", "inhibition": "inconclusive: 80.8%"}
{"smiles": "CCOc1ccccc1C1C(C#N)=C(N)SC(N)=C1C#N", "inhibition": "inconclusive: 57.7%"}
{"smiles": "CCN(C(=O)COC(=O)c1cccnc1Nc1cccc(C(F)(F)F)c1)C1CCS(=O)(=O)C1", "note": "(centres undefined)", "inhibition": "inactive: 10.8%"}
{"smiles": "Nc1c(Cl)c(Cl)nc(C(=O)N/N=C/c2ccco2)c1Cl", "inhibition": "inactive: 5.1%"}
{"smiles": "CC(=O)c1c(O)cc2n(c1=O)-c1ccc(Cl)cc1C2(C)C", "inhibition": "inconclusive: 50.2%"}
{"smiles": "CC(=O)Nc1nn(C)c2nc3cc(C)ccc3cc12", "inhibition": "inconclusive: 89.5%"}
{"smiles": "O=C(COc1ccccc1F)NNC(=O)c1cccc(-n2cccc2)c1", "inhibition": "inactive: -3.3%"}
{"smiles": "O=C(Cn1nc(-c2nn(CC(=O)c3ccccc3)c3[n+]2CCCCC3)[n+]2c1CCCCC2)c1ccccc1", "inhibition": "active: 78.1%"}
{"smiles": "CCc1ccc(NC(=O)c2sc3nc(C)nc(N4CCN(c5ccccn5)CC4)c3c2C)cc1", "inhibition": "inconclusive: 45.1%"}
{"smiles": "COc1ccc(-n2c(-c3ccccc3)nc(=S)c3c2CCCC3)cc1", "inhibition": "inconclusive: 70.7%"}
{"smiles": "CC(=O)Oc1ccc(C(=O)O)cc1OC(C)=O", "inhibition": "inactive: 2.5%"}
{"smiles": "Cc1cccc(CSc2ncnc3ccccc23)c1", "inhibition": "inconclusive: 50.3%"}
{"smiles": "O=C(CCCCn1c(=S)[nH]c2ccsc2c1=O)NCc1ccc2c(c1)OCO2", "inhibition": "inconclusive: 76.3%"}
{"smiles": "CCCCc1oc2ccccc2c1C(=O)c1cc(I)c(OCCN(CC)CC)c(I)c1", "inhibition": "active: 68.2%"}
{"smiles": "CC(=O)c1c(O)c2ccccc2n(C2CCCCC2)c1=O", "inhibition": "inconclusive: 88.9%"}
{"smiles": "Cc1cc(Nc2ccccc2)nn1C(=O)c1ccc(Br)cc1", "inhibition": "inconclusive: 63.7%"}
{"smiles": "C[C@@]12C(=O)Nc3cc(Cl)ccc3C(=O)N1[C@H]1c3cc(Cl)ccc3OC[C@@H]1[C@@H]2c1ccccc1", "inhibition": "inconclusive: 50.6%"}
{"smiles": "COc1ccccc1N1CCN(c2ccc3cc(S(=O)(=O)N4CCCCC4)ccc3n2)CC1", "inhibition": "inconclusive: 50.8%"}
